# Test results published in the supplement of paper PMC8948288.
# The sequences are guide strands of siRNAs; only the seed at positions 2 to 7 varies.
# Experiments:
# H4 = test: cell viability relative to siNT1 (ATP content); H4 human neuroglioma and GL261 mouse glioma; higher = less toxic; settings: siRNA concentration 10 nM; 96 h; human
# Method: (§1)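 Arrayed screen of all 4096 6mer seeds. Each seed sits at guide-strand positions 2-7 of a neutral 19mer siRNA backbone (siNT1-based, passenger strand 2'-O-methyl modified at positions 1-2 to block RISC loading, 3' DNA overhangs). The guide strand is built here as U + seed + ACAUGUAAACCA. Cells were reverse transfected in triplicate in 384-well plates (H4 at 10 nM, GL261 at 25 nM) with Lipofectamine RNAiMAX. Viability was read as ATP content (CellTiter-Glo) 96 h after transfection and normalised to siNT1 (%).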
# GL261 = test: as above; settings: siRNA concentration 25 nM; 96 h; mouse
# Method: as §1
# 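Note: cells reverse transfected with siRNA duplexes via lipid reagent, ATP read by luminescence, triplicate wells, values scaled to mean viability with non-targeting control siNT1.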
Sequence,cell viability (H4) [%],cell viability (GL261) [%]
UAUCUCCACAUGUAAACCA,90.3,23.7
UAUCUCGACAUGUAAACCA,102,42.2
UAUCUCUACAUGUAAACCA,76.1,21.3
UAUCUGAACAUGUAAACCA,86.3,64.3
UAUCUGCACAUGUAAACCA,66.9,24.7
UAUCUGGACAUGUAAACCA,42.6,31.9
UAUCUGUACAUGUAAACCA,102,69.8
UAUCUUAACAUGUAAACCA,101,62.4
UAUCUUCACAUGUAAACCA,59.7,10.9
UAUCUUGACAUGUAAACCA,81.7,64.5
UAUCUUUACAUGUAAACCA,106,41
UAUGAAAACAUGUAAACCA,106,54.8
UAUGAACACAUGUAAACCA,94.7,40.2
UAUGAAGACAUGUAAACCA,112,44.7
UAUGAAUACAUGUAAACCA,113,64.6
UAUGACAACAUGUAAACCA,93.7,39.6
UAUGACCACAUGUAAACCA,60.5,23
UAUGACGACAUGUAAACCA,114,53.2
UAUGACUACAUGUAAACCA,97.8,32.9
UAUGAGAACAUGUAAACCA,112,51.5
UAUGAGCACAUGUAAACCA,62.3,25.9
UAUGAGGACAUGUAAACCA,84.7,33.2
UAUGAGUACAUGUAAACCA,76.3,56.5

Sequence,cell viability (H4) [%],cell viability (GL261) [%]
UAUGAUAACAUGUAAACCA,103,53.6
UAUGAUCACAUGUAAACCA,79.1,42.7
UAUGAUGACAUGUAAACCA,101,41.6
UAUGAUUACAUGUAAACCA,101,51.2
UAUGCAAACAUGUAAACCA,116,55.4
UAUGCACACAUGUAAACCA,39,27.6
UAUGCAGACAUGUAAACCA,100,43.7
UAUGCAUACAUGUAAACCA,92.6,47
UAUGCCAACAUGUAAACCA,125,50.6
UAUGCCCACAUGUAAACCA,78.8,36.2
UAUGCCGACAUGUAAACCA,106,48.3
UAUGCCUACAUGUAAACCA,34.5,36.5
UAUGCGAACAUGUAAACCA,104,55.8
UAUGCGCACAUGUAAACCA,67.5,41.9
UAUGCGGACAUGUAAACCA,93.2,44.8
UAUGCGUACAUGUAAACCA,99.8,35.2
UAUGCUAACAUGUAAACCA,95.1,56.3
UAUGCUCACAUGUAAACCA,81.5,44.5
UAUGCUGACAUGUAAACCA,87.6,49.2
UAUGCUUACAUGUAAACCA,88.6,36.8
UAUGGAAACAUGUAAACCA,116,82.6
UAUGGACACAUGUAAACCA,72.7,34.4
UAUGGAGACAUGUAAACCA,81.7,72.8

Sequence,cell viability (H4) [%],cell viability (GL261) [%]
UAUGGAUACAUGUAAACCA,83.8,52.8
UAUGGCAACAUGUAAACCA,94.5,50.5
UAUGGCCACAUGUAAACCA,36.1,29.9
UAUGGCGACAUGUAAACCA,91.8,50.4
UAUGGCUACAUGUAAACCA,77.5,33.3
UAUGGGAACAUGUAAACCA,93,65.7
UAUGGGCACAUGUAAACCA,41.7,36.7
UAUGGGGACAUGUAAACCA,68.6,55.9
UAUGGGUACAUGUAAACCA,83.6,38.9
UAUGGUAACAUGUAAACCA,95.3,52.1
UAUGGUCACAUGUAAACCA,69.9,29
UAUGGUGACAUGUAAACCA,105,44.9
UAUGGUUACAUGUAAACCA,105,51.7
UAUGUAAACAUGUAAACCA,80.5,46.6
UAUGUACACAUGUAAACCA,82.6,12.1
UAUGUAGACAUGUAAACCA,104,50.6
UAUGUAUACAUGUAAACCA,75.8,42.9
UAUGUCAACAUGUAAACCA,118,41.8
UAUGUCCACAUGUAAACCA,34.5,13.6
UAUGUCGACAUGUAAACCA,90.2,43.7
UAUGUCUACAUGUAAACCA,84.9,16.7
UAUGUGAACAUGUAAACCA,97.3,50.8
UAUGUGCACAUGUAAACCA,103,41

Sequence,cell viability (H4) [%],cell viability (GL261) [%]
UAUGUGGACAUGUAAACCA,69.5,26.4
UAUGUGUACAUGUAAACCA,59.4,15.3
UAUGUUAACAUGUAAACCA,96.8,56.4
UAUGUUCACAUGUAAACCA,70.8,29.4
UAUGUUGACAUGUAAACCA,108,62.2
UAUGUUUACAUGUAAACCA,71.1,33
UAUUAAAACAUGUAAACCA,103,70.7
UAUUAACACAUGUAAACCA,97.6,56.7
UAUUAAGACAUGUAAACCA,95.4,63
UAUUAAUACAUGUAAACCA,88.8,67.6
UAUUACAACAUGUAAACCA,99.4,66.8
UAUUACCACAUGUAAACCA,59.5,26.6
UAUUACGACAUGUAAACCA,103,55.1
UAUUACUACAUGUAAACCA,89,54.7
UAUUAGAACAUGUAAACCA,88,52.1
UAUUAGCACAUGUAAACCA,84,42.7
UAUUAGGACAUGUAAACCA,90.5,71.2
UAUUAGUACAUGUAAACCA,89.2,40
UAUUAUAACAUGUAAACCA,102,49.3
UAUUAUCACAUGUAAACCA,83,64.8
UAUUAUGACAUGUAAACCA,101,56.3
UAUUAUUACAUGUAAACCA,108,63.1
UAUUCAAACAUGUAAACCA,83.7,55.5

Sequence,cell viability (H4) [%],cell viability (GL261) [%]
UAUUCACACAUGUAAACCA,60.2,46.8
UAUUCAGACAUGUAAACCA,77.3,65.3
UAUUCAUACAUGUAAACCA,94.2,42.8
UAUUCCAACAUGUAAACCA,97.9,67.8
UAUUCCCACAUGUAAACCA,72.3,40.4
UAUUCCGACAUGUAAACCA,104,61.9
UAUUCCUACAUGUAAACCA,74.5,35.8
UAUUCGAACAUGUAAACCA,92.9,63.8
UAUUCGCACAUGUAAACCA,73.2,28.2
UAUUCGGACAUGUAAACCA,113,51.9
UAUUCGUACAUGUAAACCA,77.2,67.9
UAUUCUAACAUGUAAACCA,55,58.4
UAUUCUCACAUGUAAACCA,85.5,17.1
UAUUCUGACAUGUAAACCA,84,73.5
UAUUCUUACAUGUAAACCA,101,61.1
UAUUGAAACAUGUAAACCA,116,57.6
UAUUGACACAUGUAAACCA,105,50.7
UAUUGAGACAUGUAAACCA,98,43.7
UAUUGAUACAUGUAAACCA,87,75.2
UAUUGCAACAUGUAAACCA,86,54.5
UAUUGCCACAUGUAAACCA,15.3,43.5
